Measured values from PubChem BioAssay AID687022 (Broad Institute, 2013).
Out of some 1,000 compounds screened, about 360 (36%) were called active.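 How the source made its calls: active means Fitted curve of melting temperature shift crosses the 1.0 threshold at or below the sample's highest valid tested concentration; inconclusive means Flat fit with activity 30 to 70, or invalid fit; inactive means Opposite direction, flat within 30, or no crossing.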 Most of the strongest results are missing from this list.

These compounds were tested against Fibroblast growth factor 22 (Homo sapiens) (UniProt Q9HCT0) (assay: FGF22 ligand-induced thermal stabilization – biophysical, thermal shift, cherry-pick, FGF22 synaptogenesis inhibitor project, dose response (AID 687022; further: reference of the scale not given here)). Conditions: recombinant FGF22 thermal shift, SYPRO orange melting; at 38 µM (top of the series) unless noted.
UniProt Q9HCT0, sequence (Q9HCT0 whole entry, looked up): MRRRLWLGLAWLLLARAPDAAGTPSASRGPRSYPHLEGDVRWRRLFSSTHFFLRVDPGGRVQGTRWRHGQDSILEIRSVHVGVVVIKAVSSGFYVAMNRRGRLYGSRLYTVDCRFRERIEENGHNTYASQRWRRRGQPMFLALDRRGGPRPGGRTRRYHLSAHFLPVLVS
`O=C(O)c1cccc(-n2cc(-c3cccc(C(F)(F)F)c3)cn2)c1` was tested, and the Tm shift activity was inactive: 0.496% [at 5 µM].
With `O=C(Nc1ccccc1F)N1[C@H](CO)[C@H]2c3ccccc3NC[C@H]21` the Tm shift activity was inactive: 0.101% [at 42 µM].
With `CC(=O)N1[C@H](CO)[C@@H](c2ccccc2)C12CN(C(=O)Cc1ccccc1)C2` the Tm shift activity was inactive: 0.293%.
In the case of `C[C@@H]1CN([C@H](C)CO)S(=O)(=O)c2ccc(C#CC3CC3)cc2O[C@H]1CN(C)C(=O)c1ccncc1`, the Tm shift activity is reported as inactive: -0.481%.
For `CC(C)NC(=O)N(C)C[C@H]1OCCCC[C@H](C)Oc2ccc(N(C)C)cc2C(=O)N([C@H](C)CO)C[C@H]1C`, the Tm shift activity was inactive: -0.324% [at 42 µM].
For `CC(C)C#Cc1cnc2c(c1)C(=O)N([C@@H](C)CO)C[C@H](C)[C@H](CN(C)C(=O)c1cnccn1)O2`, the Tm shift activity was inactive: -0.148% [at 42 µM].
In the case of `O=C(Nc1nnc(-c2ccccc2F)s1)c1ccccc1F`, the Tm shift activity is reported as inactive: 0.215%.
`CO[C@@H]1CN(C)C(=O)c2ccc(NC(=O)C3CC3)cc2OC[C@H](C)N(C(=O)CN2CCOCC2)C[C@@H]1C` was tested, and the Tm shift activity was inactive: -0.167%.
In the case of `COc1ccc(-n2nnnc2/C=C\Nc2ccc(C)cc2)cc1`, the Tm shift activity is reported as inactive: 0.301%.
For `O=C1COc2ccc(S(=O)(=O)N3CCCC3)cc2N1`, the Tm shift activity was inactive: -0.074%.
With `O=C(Nc1ccc(Cl)cc1)N1C[C@@H]2[C@H](c3ccccc31)[C@H](CO)N2C(=O)C1CC1` the Tm shift activity was inactive: 0.135%.
For `O=C(C[C@H]1CC[C@@H]2[C@H](COC[C@@H](O)CN2Cc2nccs2)O1)NCc1ccccc1F`, the Tm shift activity was inactive: 0.024% [at 42 µM].
In the case of `COc1ccc(OC)c(NC(=O)NNC(=O)CCCOc2ccc(Cl)cc2C)c1`, the Tm shift activity is reported as inactive: 0.596%.
With `CO[C@H](CN(C)S(=O)(=O)c1cccc(Cl)c1)[C@H](C)CN([C@@H](C)CO)S(=O)(=O)c1cccc(Cl)c1` the Tm shift activity was inactive: 0.223% [at 42 µM].
`O=C(C[C@@H]1CC[C@H]2[C@@H](COC[C@@H](O)CN2Cc2cccc(C(F)(F)F)c2)O1)NCc1ccncc1` was tested, and the Tm shift activity was inactive: -0.188%.
For `CCOC(=O)[C@@H]1[C@H]2COc3cc(OC)ccc3[C@H]2N2C(=O)N(c3ccc(C)cc3)C(=O)[C@]12C`, the Tm shift activity was inactive: -0.261%.
With `Cc1ccccc1-c1ccccc1[C@H]1[C@@H](CO)N(C(=O)c2ccccc2)[C@H]1C#N` the Tm shift activity was inactive: 0.238% [at 42 µM].
With `CC(=O)NC[C@@H]1[C@@H](c2ccccc2)[C@@H](CO)N1C(=O)Cc1cccnc1` the Tm shift activity was inactive: -0.004% [at 42 µM].
For `CC(C)NC(=O)N[C@H]1CC[C@@H](CC(=O)O)O[C@@H]1CO`, the Tm shift activity was inactive: -0.134% [at 42 µM].
